# Data taken from the supplement of paper PMC4166925.
# ± gives the standard deviation of the averaged measurements. Over roughly 33,000 sequences, “E-score (dimensionless, -0.5 to 0.5)” has its median near -0.046; the highest 2% begin near 0.36. This is one part of the list.
# System: T1, SpTbr T-box DNA-binding domain (GST fusion)
# T1 sequence: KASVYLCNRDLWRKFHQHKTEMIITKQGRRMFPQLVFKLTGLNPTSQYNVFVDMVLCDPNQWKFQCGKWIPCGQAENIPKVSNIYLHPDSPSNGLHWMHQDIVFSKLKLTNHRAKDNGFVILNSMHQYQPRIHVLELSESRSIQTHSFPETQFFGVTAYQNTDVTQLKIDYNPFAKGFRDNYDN
# Assay: PBM E-score of 8-mer (E-score (dimensionless, -0.5 to 0.5)); Tbr is Tbrain of the sea star Patiria miniata (Pm) or the sea urchin Strongylocentrotus purpuratus (Sp); higher = stronger binding preference; most listed sequences are background and not binding sites
# Conditions: the construct has about 5 more residues each side
# Procedure, shortened: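 Expression of GST-fused Tbr T-box DNA-binding domains, each holding the full T-box plus roughly five flanking residues, was carried out in BL21 E. coli at 20 °C, with purification by glutathione affinity chromatography. Universal Agilent arrays made double-stranded by primer extension were incubated with the protein at 200 nM in PBS (pH 7.5), then scanned and quantified. All ungapped 8-mers were scored from probe intensities, and each received an enrichment E-score from the Universal PBM Analysis Suite, averaged over duplicate arrays.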
row,Sequence,PBM E-score of 8-mer
1,TAACCTAA,0.0477 ± 0.014
2,CTGAAGAA,-0.0918 ± 0.044
3,CTCACCAC,0.218 ± 0.037
4,TCATATAA,-0.186 ± 0.029
5,TAAATTCA,-0.13 ± 0.022
6,CCACCAGA,0.0229 ± 0.0042
7,GTACATCA,-0.0824 ± 0.041
8,ATCGAATA,-0.123 ± 0.066
9,AGCTGCCT,0.13 ± 0.093
10,CTCTAGAA,-0.0987 ± 0.035
11,GGGAGAGA,0.00894 ± 0.011
12,CCTTGGGC,-0.00559 ± 0.0056
13,AGCTTTAG,-0.0752 ± 0.035
14,ACGGTCCG,0.0727 ± 0.023
15,GGGCACAA,-0.0396 ± 0.039
16,GTCGAAGA,-0.15 ± 0.016
17,CGACGTAC,-0.0864 ± 0.048
18,CGTAGACG,-0.122 ± 0.051
19,AACAACTC,0.175 ± 0.03
20,CGCCCTAC,-0.0178 ± 0.022
21,GCGTGTAA,0.0697 ± 0.022
22,ATATGAGA,-0.13 ± 0.05
23,CCCATTAG,-0.151 ± 0.021
24,ACTAATTG,0.0139 ± 0.029
25,GAACGTGC,0.0826 ± 0.055

row,Sequence,PBM E-score of 8-mer
1,ACGTCGAG,0.0316 ± 0.0028
2,GAGAGTGC,0.235 ± 0.029
3,CGTGCAAA,0.146 ± 0.024
4,GGCAAACA,0.0235 ± 0.096
5,CCAGATCC,0.0296 ± 0.0035
6,CGACTGCA,-0.155 ± 0.0016
7,AACCGACT,-0.05 ± 0.035
8,AACAAACC,-0.0382 ± 0.015
9,AGTGACTA,0.0892 ± 0.051
10,ACAGATGC,0.0542 ± 0.079
11,AGGCCATG,-0.322 ± 0.048
12,GCAAAAAC,0.158 ± 0.023
13,CTCAAGAC,-0.173 ± 0.049
14,ACCTATAG,-0.0484 ± 0.021
15,TCAGTAAA,-0.113 ± 0.0082
16,CCTCATAC,0.00052 ± 0.034
17,CGCCGCGA,0.199 ± 0.049
18,GTTAACTA,0.1499 ± 0.001
19,CGTCCCAA,-0.179 ± 0.025
20,CTCACCCC,0.304 ± 0.027
21,CATCTCCC,-0.128 ± 0.05
22,ATGGCCAC,-0.0988 ± 0.0035
23,TAAGAGGA,-0.0506 ± 0.021
24,ATGAAAAT,-0.017 ± 0.05
25,CAGTTCAG,-0.2217 ± 0.0013

row,Sequence,PBM E-score of 8-mer
1,AAAATTAC,0.0569 ± 0.024
2,AAGGCGAG,0.3214 ± 0.0018
3,GTTGAAAA,0.0433 ± 0.018
4,CCGTCTAA,-0.29 ± 0.029
5,CTGTAAGA,-0.0227 ± 0.0078
6,AACGGACT,0.013 ± 0.0058
7,ACGGCACA,0.06003 ± 7.8e-05
8,ACATCCAA,0.0357 ± 0.0079
9,GTCCTCCA,-0.0942 ± 0.066
10,GTTTATTA,-0.189 ± 0.087
11,ATCGGAAG,-0.0552 ± 0.027
12,TAATAGTA,-0.19 ± 0.028
13,CCTAGGAG,-0.0464 ± 0.051
14,GGGCGGAA,-0.23 ± 0.02
15,CCGATCAA,0.0887 ± 0.014
16,GGATGAAC,-0.09 ± 0.072
17,CCCTAAAA,0.00853 ± 0.054
18,GTCGGCCA,-0.0885 ± 0.016
19,ACCAAGCG,0.162 ± 0.011
20,CCAGACTA,-0.319 ± 0.012
21,TACATGTA,-0.244 ± 0.085
22,CCCCCCAC,-0.243 ± 0.031
23,CCAATTAG,0.06 ± 0.0055
24,ATGGGACC,-0.181 ± 0.037
25,AGTAACAC,0.3552 ± 0.0029

row,Sequence,PBM E-score of 8-mer
1,CTCGGGAA,-0.0453 ± 0.049
2,CTAGCGCA,-0.0724 ± 0.049
3,CAGAGCTA,-0.37 ± 0.028
4,AAAAGATT,-0.183 ± 0.048
5,CGCACAAG,0.0889 ± 0.0094
6,CAATACAA,-0.243 ± 0.0065
7,GGTGCCTA,0.0923 ± 0.1
8,CACATTTC,0.316 ± 0.055
9,CAGGGAGC,-0.115 ± 0.055
10,CATAACTA,-0.0516 ± 0.013
11,GAGGAGAA,-0.133 ± 0.018
12,CGGGTACG,-0.126 ± 0.037
13,CTTAGCCA,0.0171 ± 0.014
14,CTCAGTGC,-0.00873 ± 0.043
15,ACGAAGAG,-0.0962 ± 0.029
16,AGAGCTAA,-0.0488 ± 0.023
17,CCGGATGC,-0.0834 ± 0.055
18,AAGGAGAA,-0.247 ± 0.045
19,ATACTCTG,-0.126 ± 0.019
20,ATAGTTGA,-0.0287 ± 0.0013
21,ACCCAACA,0.139 ± 0.025
22,CTTGATTC,-0.0753 ± 0.011
23,ATCTAATC,-0.0658 ± 0.017
24,ACAGAAGG,0.09 ± 0.084
25,CTTGAGTA,-0.142 ± 0.079

row,Sequence,PBM E-score of 8-mer
1,CTAGTAAG,-0.0912 ± 0.035
2,ACGCTACT,0.0962 ± 0.058
3,ATTTATAA,-0.00806 ± 0.035
4,CAGGCAGC,-0.0447 ± 0.042
5,AGATCATC,0.0451 ± 0.065
6,ACAGCCTG,0.0918 ± 0.017
7,CGGCACAC,0.188 ± 0.01
8,CATGATGG,-0.123 ± 0.0069
9,GAAGCAGC,-0.131 ± 0.072
10,AGGTAGCC,-0.254 ± 0.054
11,CATCGGCC,-0.26 ± 0.0059
12,CATATTGC,0.0771 ± 0.014
13,ATTGTTGA,0.196 ± 0.0023
14,AAGTAGTG,0.183 ± 0.041
15,ATAACACA,0.35 ± 0.028
16,ATGCAAGC,-0.131 ± 0.037
17,GGTAGCAA,0.139 ± 0.031
18,AGTTAGAC,-0.231 ± 0.018
19,ATAGATCA,-0.181 ± 0.016
20,AGTCAGAA,-0.163 ± 0.029
21,CTGGCAAC,0.197 ± 0.02
22,TATCTAGA,-0.0961 ± 0.074
23,AAGTAATG,0.00825 ± 0.0022
24,ATGTGGCA,0.2551 ± 0.0021
25,AGTTCGCC,0.0613 ± 0.039

row,Sequence,PBM E-score of 8-mer
1,AATGCTAG,-0.09 ± 0.015
2,CGGACGGC,-0.157 ± 0.075
3,AAGCGATA,0.2613 ± 0.002
4,CGGAGATC,-0.163 ± 0.018
5,CAACTCTA,-0.0379 ± 0.031
6,GTCAATAA,0.129 ± 0.034
7,TATGATGA,-0.0739 ± 0.059
8,ACCTTATG,0.054 ± 0.036
9,CGCTACAA,0.107 ± 0.069
10,GCGGGCGA,-0.0188 ± 0.08
11,AAGTTTTG,-0.0157 ± 0.057
12,CGAAACGA,0.161 ± 0.0022
13,CAGTCGGA,-0.0497 ± 0.079
14,AGATCTAC,-0.0366 ± 0.077
15,ATAGATGC,-0.00715 ± 0.049
16,GACCCGTA,-0.0138 ± 0.012
17,CTGAGTGC,0.0208 ± 0.023
18,CTACTAAA,-0.136 ± 0.022
19,CTTGGTTA,-0.192 ± 0.076
20,CCGGGCCA,-0.207 ± 0.05
21,GTAAAGCA,-0.157 ± 0.021
22,ATAAATAC,0.0531 ± 0.074
23,CGACTCCG,0.0313 ± 0.055
24,TGGGCAAA,0.0144 ± 0.028
25,AAATAATC,0.0658 ± 0.044

row,Sequence,PBM E-score of 8-mer
1,ACGCGTTC,0.181 ± 0.086
2,AAAGCGCA,-0.0207 ± 0.1
3,CTAAAATA,-0.0993 ± 0.05
4,GAGCCATC,-0.0309 ± 0.039
5,CCACGAAA,0.0171 ± 0.1
6,CCCTCCCG,-0.191 ± 0.053
7,CATGCCAA,-0.0456 ± 0.096
8,ATGAAAGA,0.0262 ± 0.0019
9,AACTCCCG,0.0204 ± 0.022
10,TTACTCAA,0.00021 ± 0.08
11,ACTCGGCC,0.0521 ± 0.011
12,CTTCCCCC,-0.22 ± 0.011
13,ATGCATAC,-0.0639 ± 0.046
14,AGTGGTGA,0.232 ± 0.014
15,AGCCATAG,-0.026 ± 0.031
16,CCGGACGC,-0.184 ± 0.015
17,ACAAAACA,0.0943 ± 0.064
18,ATGTAGTG,-0.0103 ± 0.035
19,GTTATAAA,0.074 ± 0.028
20,CTCACAGA,0.107 ± 0.062
21,AGTTGCAG,-0.175 ± 0.073
22,GTTAGTAA,-0.0148 ± 0.072
